Assay results reported in PubChem BioAssay (NCI).
Several values for one entry are separate records, joined by “and”; a condition that tells them apart may be missing. Identical values can stand only once.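 Growth conditions: 96-well plates. Treatment: test compound, 48 hours, 5 concentrations. Analysis: linear interpolation between bracketing concentrations; unreached endpoints set to highest concentration. GI50 marks 50% less growth. The concentration for full growth arrest is given as TGI.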

Test system: NCI-H322M lung
Assay: NCI tumour cell line growth inhibition, 48 h

SMILES | GI50 [µM] | TGI
COc1cccc(/C=N\NC(=O)c2ccncc2)c1O | 5.14 | > 100 µM
Cn1c(-c2ccccc2)cc(-c2ccc3c(c2)OCO3)c1-c1ccsc1 |  | > 100 µM
CN1CCN(C)C1c1ccc(C2N(C)CCN2C)cc1 | > 100 | > 100 µM
CCS1=C2C(=O)CC(C)(C)CC2=Nc2ccccc21 (stereo unspecified) |  | > 100 µM
O=C(CSCC(=O)N/N=C\c1ccc(F)cc1F)N/N=C\c1ccc(F)cc1F |  | > 100 µM
N#CC(O)CCOCc1ccccc1 (stereo unspecified) |  | > 100 µM
Cc1n[nH]c(=O)n1C1CC1 |  | > 100 µM
CC(=O)O[C@@H]1c2c(c3c(=O)c4cccc(O)c4c(=O)c=3c2=[N+]=[N-])[C@H](OC(C)=O)[C@@H](OC(C)=O)[C@]1(C)O | 0.784 | 1.32 µM and 2.03 µM
O=C1N[C@H]2C(=O)c3c(Br)sc(Br)c3[C@H]2O1 |  | 28.3 µM
NC(=O)c1cn(C2CC(O)C(CO)O2)c2ncnc(N)c12 (stereo unspecified) | 2.3 | 41.6 µM
O=C(N/C(=C\c1ccccc1)c1nc2ccccc2c(=O)o1)c1ccccc1 |  | > 100 µM
CCOC(=O)c1ccc(N2NC(=O)/C(=C/c3ccc([N+](=O)[O-])o3)C2=O)cc1 | > 43.7 | > 64 µM
CCCCCN(CCCCC)CCC[C@@H](C)[C@H]1CC[C@H]2[C@@H]3[C@H](OCCCN)C[C@@H]4C[C@H](OCCCN)CC[C@]4(C)[C@H]3C[C@H](OCCCN)[C@]12C | 3.09 | 13.1 µM
COc1cccc(S(=O)(=O)NC2=NCCN2C(=S)SN2CCn3c2nsc3=S)c1 | 97.1 | > 100 µM
COc1ccc(C)c2sc(N(Cc3cccnc3)C(=O)c3ccc(C#N)cc3)nc12 | > 100 | > 100 µM
COc1ccccc1NC1Oc2cc3c(cc2C(c2cc(OC)c(OC)c(OC)c2)C1C)OCO3 (stereo unspecified) |  | > 100 µM
CCOC(=O)Cc1csc(NC(=O)C(OC(=O)c2ccc(Cl)cc2)c2ccccc2)n1 (stereo unspecified) | 70.5 | > 100 µM
COc1ccc2cc3c4cc(OC)c(OC)cc4ccn3c2c1 |  | > 100 µM
CC(=O)Nc1ccc(S(=O)(=O)c2nnc(NC(C)=O)s2)cc1 |  | > 100 µM
COC(=O)[C@H](Cc1cn(C)cn1)NC(=O)[C@H](CC(C)C)NC(=O)Nc1cc(C(F)(F)F)cc(C(F)(F)F)c1 | > 10 | > 10 µM
CSc1nc(-c2ccccc2)[nH]c(=O)n1 |  | > 100 µM
COc1cc2c3c(n(CCCN=[N+]=[N-])c(=O)c2cc1OC)-c1ccc(F)cc1C3=O | 55.5 | > 100 µM
Clc1cc(Br)ccc1-c1ccc(CNCC2CCNCC2)o1 | 2.03 | 4.49 µM

SMILES | GI50 [µM] | TGI
N#Cc1ccc(C2ON=C(c3ccccc3)N2C23CC4CC(CC(C4)C2)C3)cc1 (stereo unspecified) |  | > 10 µM
O=Cc1ccc(-c2ccc(-c3nc4ccccc4s3)cc2)o1 | 53 | > 100 µM
CC(=O)OC(C(=O)O)C(OC(C)=O)C(OC(C)=O)C(OC(C)=O)C(=O)O (stereo unspecified) |  | > 100 µM
CCOc1ccc(-c2nc3ccc(-c4nc5ccc(N6CCN(C)CC6)cc5[nH]4)cc3[nH]2)cc1 | 1.13 | 2.51 µM
O=C(Nc1ccc(Cl)c(C(F)(F)F)c1)Nc1ccc(-c2cccnc2)cc1N1CCC(CO)CC1 | 3.1 | 78.9 µM
OCc1ccc(-c2nc(-c3ccc4c(c3)OCO4)c(-c3ccccn3)[nH]2)cc1 | > 25 | > 25 µM
O=C1NC(=O)C(CCC(=O)c2cccc3ccccc23)C(=O)N1 |  | > 100 µM
CCN(CC)CCCNc1ccc([N+](=O)[O-])c2nc3ccccc3c(N)c12 |  | 1.91 µM
CC(=O)NC(CCCNC(=O)N(C)N=O)C(=O)NCc1ccccc1 (stereo unspecified) |  | > 100 µM
C=C(CN(C)C)C(=O)c1ccccc1OC |  | > 100 µM
Cc1cc(Cl)ccc1NC(=O)/C(=N\NC(C)(C)C)C(C#N)c1nc(-c2ccc([N+](=O)[O-])cc2)cs1 (stereo unspecified) |  | > 100 µM
COc1ccc(Nc2ncc(I)c(NCCCNC(=O)C3CCC3)n2)cc1 | 9.76 | 40.7 µM
CCn1nc(C2CCN(C(=O)CCO)CC2)nc1-c1cnc(N)c(-c2nnc(C(C)(C)C)o2)n1 | 2.51 | > 100 µM
CCN1/C(=C/C(C)=C/c2sc3ccc4ccccc4c3[n+]2CC)Sc2ccc3ccccc3c21 | 0.292 | 1.23 µM
CCCCCCCCCCCCc1ccc(S(=O)(=O)O)cc1.[Cu+2] |  | > 100 µM
CCOC(=O)c1cc(=O)c2cccc3c2n1CCS3 |  | > 100 µM
Clc1ccc(-c2cnc3c(-c4ccnc(N5CCNCC5)c4)cnn3c2)cc1 | 1.92 | 3.39 µM
Cc1ccc(S(=O)(=O)C2=Cc3ccccc3C2(O)c2ccccc2)cc1 (stereo unspecified) |  | 67.5 µM
CCCCCSc1ccc2nc(NC(=O)OCC)sc2c1 | 5.1 | > 100 µM
CC1(O)CC2C(CC1SC1CC3C(CC1(C)O)C3(C)C)C2(C)C (stereo unspecified) |  | > 100 µM
O=C1C(Cl)C(c2ccccc2Cl)N1n1cnc2ccccc2c1=O (stereo unspecified) |  | > 100 µM
C[C@@H]1CC[C@@]2(C)OC(c3ccccc3)[C@H](CO)N2C1=O (stereo partly specified) |  | > 100 µM
